Reference: the supplement of paper PMC10126150
Values marked as one replicate rest on one cluster of the flow cell; about a third of the high ones do not repeat.

What follows are sequences tested on ATP (assay: switch fluorescence ratio, 500 uM ATP over buffer (Cy3 cluster intensity, sum of 5 cycles each) (fold (ratio)); higher = stronger signal-on switching upon ATP binding; sequences stand for … in TCGTCGGCAGCGTCAGATGTGTATAAGAGACAGTTTTTTTTTTTTTTTTTTTTTTTTT…TC). Conditions: aptamer strand: ATP DNA aptamer (quencher-CACCTGGGGGAGTATTGCGGAGGAAGG + anchor), 100 nM annealed; ATP concentration: 500 uM; one replicate.
Procedure, shortened: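 Imaging in selection buffer was followed by imaging after 15 min with 500 uM ATP at 22 °C, for Cy3-labelled switching-strand clusters annealed to 100 nM quencher-labelled ATP aptamer on a modified Illumina MiSeq flow-cell. Five of these buffer/ATP cycles ran, separated by NaOH stripping and re-annealing. The fluorescence ratio per cluster is summed target-cycle over summed buffer-cycle Cy3 intensity, averaged per switch-domain sequence; clusters outside 100-1000 RFU were removed.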
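Also: ATP exposure 15 min at 22 °C before imaging.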

Row | Sequence | switch fluorescence ratio
1 | TGCCGCTGT | 1.05
2 | TGCCGGAAAG | 1.01
3 | TGCCGTCGG | 1.06
4 | TGCCTAGAGT | 1
5 | TGCCTCAGTC | 1.08
6 | TGCCTCCTTT | 0.985
7 | TGCCTCTCCG | 1.15
8 | TGCCTCTGTT | 1.05
9 | TGCCTGATCG | 0.985
10 | TGCCTGATGG | 1.01
11 | TGCCTGCTAT | 0.975
12 | TGCCTGGGGT | 1.04
13 | TGCCTTCGGT | 1
14 | TGCCTTGACA | 0.986
15 | TGCCTTTTTG | 1.01
16 | TGCGAAAGGT | 0.947
17 | TGCGAAATAG | 1.53
18 | TGCGAAGTAC | 1.57
19 | TGCGACAAGA | 1.38
20 | TGCGAGAATA | 0.935
21 | TGCGAGGTGC | 1.26
22 | TGCGAGTATA | 1.01
23 | TGCGATCCAT | 1.04
24 | TGCGATCCCT | 1.42
25 | TGCGCAGGGG | 1.03
26 | TGCGCCAATT | 0.925

Row | Sequence | switch fluorescence ratio
27 | TGCGCCTCA | 0.951
28 | TGCGCCTGGA | 1.03
29 | TGCGCTCTGC | 1.12
30 | TGCGCTTACC | 1.45
31 | TGCGCTTAGG | 0.974
32 | TGCGGAGTTA | 1
33 | TGCGGAGTTG | 0.99
34 | TGCGGATGTA | 0.977
35 | TGCGGCAGCC | 0.998
36 | TGCGGCAGTG | 0.967
37 | TGCGGCCCCC | 1.01
38 | TGCGGCTGCT | 0.966
39 | TGCGGCTGTG | 1.01
40 | TGCGGGATT | 1.01
41 | TGCGGGGGCC | 0.991
42 | TGCGGGGTTG | 0.995
43 | TGCGGTATCT | 0.98
44 | TGCGGTGTGT | 1.01
45 | TGCGTACATA | 1.08
46 | TGCGTGCTCT | 1.02
47 | TGCGTGGAGA | 1.07
48 | TGCGTTGTAG | 0.997
49 | TGCTAACAAT | 1.02
50 | TGCTAAGTCC | 1.23
51 | TGCTAATT | 0.991
52 | TGCTACAAAG | 1

Row | Sequence | switch fluorescence ratio
53 | TGCTACATGG | 0.999
54 | TGCTACTGCT | 1
55 | TGCTAGAAAA | 0.976
56 | TGCTAGATCC | 0.976
57 | TGCTAGTATA | 0.917
58 | TGCTATTGCG | 0.963
59 | TGCTCCAGTA | 1.06
60 | TGCTCCTGAG | 0.959
61 | TGCTCGGCGG | 1.03
62 | TGCTCTCAAT | 1.37
63 | TGCTCTTGCT | 1.05
64 | TGCTGAAG | 1.03
65 | TGCTGAAGG | 0.995
66 | TGCTGATAAT | 0.976
67 | TGCTGCTAC | 1.77
68 | TGCTGCTTAC | 1.92
69 | TGCTGGCTTC | 0.926
70 | TGCTGTGTCG | 1.04
71 | TGCTTACAGA | 1.03
72 | TGCTTACCTG | 1.01
73 | TGCTTATGAA | 1.03
74 | TGCTTCCAGC | 0.985
75 | TGCTTCGGTT | 1.06
76 | TGCTTGACCA | 1.08
77 | TGCTTGTTTG | 0.993
78 | TGCTTTGCAG | 0.978

Row | Sequence | switch fluorescence ratio
79 | TGCTTTGCC | 1.07
80 | TGCTTTGCCA | 1.01
81 | TGCTTTTAG | 0.988
82 | TGGAAAAGAA | 1.08
83 | TGGAAACGAA | 0.988
84 | TGGAAACGGG | 1
85 | TGGAAAGAT | 0.999
86 | TGGAACGTTG | 1.03
87 | TGGAAGCTTT | 1.02
88 | TGGAAGGGCG | 0.961
89 | TGGAATCGCC | 1.01
90 | TGGAATCGTC | 0.986
91 | TGGAATTTGC | 1.02
92 | TGGACAGGGG | 1.06
93 | TGGACCCCAG | 1.04
94 | TGGACGGGTG | 1.03
95 | TGGACGGTAA | 1.02
96 | TGGACTAAAA | 0.972
97 | TGGACTATGT | 0.974
98 | TGGACTCATA | 0.996
99 | TGGACTGTTT | 1.06
100 | TGGAGAAACG | 0.974
101 | TGGAGAATCG | 1.01
102 | TGGAGAGGCA | 1
103 | TGGAGATCGC | 1.04
104 | TGGAGATGTC | 0.915

Row | Sequence | switch fluorescence ratio
105 | TGGAGCATGG | 0.982
106 | TGGAGCTCAC | 1.44
107 | TGGAGGAAAG | 1.04
108 | TGGAGGTCGG | 1.01
109 | TGGAGTCTAA | 1.12
110 | TGGATAGCGG | 0.973
111 | TGGATAGGCC | 0.984
112 | TGGATAGTGG | 0.986
113 | TGGATATTCT | 0.969
114 | TGGATATTGC | 1.03
115 | TGGATATTGT | 0.994
116 | TGGATCAAAC | 0.958
117 | TGGATCGCAT | 1.09
118 | TGGATCGGGT | 0.951
119 | TGGATCTCCG | 1.21
120 | TGGATGAAAT | 1
121 | TGGATGCTTA | 0.974
122 | TGGATTGTGG | 0.986
123 | TGGCAACATG | 1.02
124 | TGGCAACGGG | 0.995
125 | TGGCAATAGA | 1.04
126 | TGGCACGTGT | 1.04
127 | TGGCAGCCTG | 1.02
128 | TGGCAGTTGG | 1.02
129 | TGGCATAGGG | 1.09
130 | TGGCATAGT | 0.98

Row | Sequence | switch fluorescence ratio
131 | TGGCATTCAA | 0.987
132 | TGGCCACTCT | 0.997
133 | TGGCCAGCCT | 1.01
134 | TGGCCCAAGC | 1.01
135 | TGGCCCTTCG | 1.06
136 | TGGCCGGGGT | 0.959
137 | TGGCCGGTT | 1.06
138 | TGGCCGTCTT | 0.879
139 | TGGCGAACTC | 1.03
140 | TGGCGATAAC | 1.81
141 | TGGCGCCTGT | 0.989
142 | TGGCGGCGAG | 0.991
143 | TGGCGGGACG | 0.913
144 | TGGCTAAAAG | 1.01
145 | TGGCTAAAGA | 0.976
146 | TGGCTAGTTT | 0.965
147 | TGGCTCATAG | 1.03
148 | TGGCTCGTAC | 1.01
149 | TGGCTGATCG | 0.986
150 | TGGCTGTCGG | 1.01
151 | TGGCTTGTCG | 1.01
152 | TGGCTTGTGG | 0.971
153 | TGGCTTTTCG | 0.976
154 | TGGGAACAAT | 0.97
155 | TGGGAATAAG | 0.962
156 | TGGGACCGTA | 1.05

Row | Sequence | switch fluorescence ratio
157 | TGGGACGGAC | 1.01
158 | TGGGACTAGG | 1
159 | TGGGACTCGG | 0.939
160 | TGGGAGACGT | 0.936
161 | TGGGAGCAAG | 1.03
162 | TGGGAGCGGC | 1.01
163 | TGGGATAAAT | 0.97
164 | TGGGATCTGA | 0.983
165 | TGGGCAAACG | 1.01
166 | TGGGCCGGGC | 0.987
167 | TGGGCCGTGT | 1.05
168 | TGGGCGACGA | 1.05
169 | TGGGCGCCCT | 1.01
170 | TGGGCGGACA | 0.998
171 | TGGGCGTCG | 0.98
172 | TGGGGATCAA | 1.02
173 | TGGGGCAGA | 0.993
174 | TGGGGCCAAT | 0.999
175 | TGGGGCCCAC | 1.04
176 | TGGGGCCGGA | 0.994
177 | TGGGGGAAG | 0.957
178 | TGGGGGAG | 1.03
179 | TGGGGTACCC | 1.01
180 | TGGGGTCCGT | 1.01
181 | TGGGGTGCGT | 1
182 | TGGGTATGGA | 1.04

Row | Sequence | switch fluorescence ratio
183 | TGGGTCCATC | 0.981
184 | TGGGTGGAA | 1
185 | TGGGTGTCCT | 0.967
186 | TGGGTTAACC | 0.97
187 | TGGGTTACAA | 0.958
188 | TGGGTTAGTT | 0.998
189 | TGGGTTCTCT | 1.01
190 | TGGGTTGGA | 1.01
191 | TGGGTTGTCT | 0.995
192 | TGGGTTTGT | 1.04
193 | TGGTAATCGC | 1.04
194 | TGGTACCTTA | 1.02
195 | TGGTAGAATT | 0.981
196 | TGGTAGCGAG | 1.01
197 | TGGTAGCTAT | 1.04
198 | TGGTAGTGCG | 0.988
199 | TGGTAGTTGG | 0.989
200 | TGGTATAGCG | 0.94
201 | TGGTATATAG | 0.977
